Here are results for 56 sequences from the supplement of paper PMC7726561.

In all, about 1,400 sequences were measured (“thermal melting temperature (Tm) of peptide-HLA complex”: median about 60, lowest 2% from about 45 on). The list shows a part of the results.
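Also: cell lysates heated 10 min at 37–73 °C, remaining pHLA pulled down with pan-class I antibody, peptides quantified by DIA-MS versus 37 °C, Tm where half the complex is lost.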

For the assay, the target named is HLA-B*07:02. The assay is described as follows: thermal melting temperature (Tm) of peptide-HLA complex; higher = more thermostable pHLA complex. The settings on record: C1R-B*07:02.
In turn, QPNLKLLAM registered a thermal melting temperature of 62.9 °C. In the case of APELLRALL it was 62.9 °C.

Sequence APAAFGLVSF had a thermal melting temperature of 63.7 °C.

In turn, RPADKRSFIP came in with a thermal melting temperature of 61.8 °C.

Sequence APFPRGEL had a thermal melting temperature of 61.5 °C. In the case of VPQLTRPGSFL it was 60.9 °C; in that of VPRASVPDGFL, 62.3 °C. In the case of APRPPSLAVP it was 59.1 °C; in that of RPGLGMTSVF, 61.4 °C.

As for VPRSLEPPVL, the thermal melting temperature amounted to 57 °C.

With MPALRSINL, the thermal melting temperature was 61.2 °C. The same measure for RPRPPITLL: 61.9 °C; for SPPTPIRSVL: 60.6 °C; for LPRAVNTQAL: 60.4 °C.

For VPDDDRSLINL, the thermal melting temperature stood at 56.8 °C. LPRLPVPAV displayed a thermal melting temperature of 62.7 °C. The same measure for RPYSFFTKL: 59.3 °C. In the case of ILRTAGTAL it was 56.4 °C. In the case of TPSPRLAL it was 60 °C; in that of APTPPGLRNSL, 59.6 °C; in that of VPTAKFQEL, 55.4 °C. For LPRVADILTQL, the thermal melting temperature stood at 61.7 °C. As for WPHPPGPFL, the thermal melting temperature worked out at 62.3 °C.

In turn, YPARYRPTAL came in with a thermal melting temperature of 58.2 °C. The same measure for LPASPAHQL: 60.7 °C; for RPALPVSYL: 63.6 °C; for GVRPFGVSL: 57.4 °C. YIDEGRLVL showed a thermal melting temperature of 51.6 °C. In the case of IPISLHTSL it was 61.3 °C; in that of QPIGHPDAL, 55.2 °C. The same measure for GPRAPGPSLL: 62 °C; for RPYTNKVITL: 58.1 °C. In the case of YPEILRSNL it was 57.3 °C. Consider APRTVSVQTL, for which the thermal melting temperature came out at 59.8 °C. In the case of SPRTPVSPVKF it was 59.3 °C; in that of SPRALTQPLGL, 61.2 °C; in that of TPAPSRTASF, 51.1 °C. The same measure for SPNQKLLAVSL: 60 °C; for VPASFRLQM: 62.2 °C; for APRPASGPIRP: 57.3 °C. In turn, KPQTKLLIL showed a thermal melting temperature of 60.8 °C. The same measure for APAPPKAEA: 63 °C; for QPRDIGLQI: 61.3 °C; for RPGPAAPIAL: 59.5 °C. In the case of GPRFSPITPL it was 61.5 °C; in that of AVRKPAISL, 60.7 °C. The same measure for TPHARIIEL: 59.9 °C; for SPRFPAQYL: 62.6 °C. The sequence KPAASPLTSL displayed a thermal melting temperature of 61.2 °C. In the case of NPNMRLSQL it was 59.5 °C; in that of RPWTVMESL, 59.6 °C. The same measure for QPRPPVTLI: 60.7 °C. Regarding SPRNEVEAL, the thermal melting temperature amounted to 58.1 °C.

As for SPRWGGIMV, the thermal melting temperature is 62.3 °C.

Regarding RPAGPVAVGI, the thermal melting temperature was 43.3 °C.

As for HPNGNITEL, the thermal melting temperature turned out to be 55.3 °C.
